# Assay results as given in PubChem BioAssay AID1347120 (National Center for Advancing Translational Sciences (NCATS), 2019).
# The campaign covered roughly 390,000 compounds. About 930 (0.24%) were called active. This list was built around the results that the source calls inconclusive (neither active nor inactive); the mix of calls is not that of the screen. Calls follow the shape of the dose curve; as a rule, active = well fitted activation curve with a large enough effect; inconclusive = small, poorly fitted or top-dose-only effect; inactive = no such curve, though single readings can be large or run the other way. Potencies of inconclusive entries are doubtful fits and often do not repeat.
# Assay: qHTS for Suppressors of FUS Proteinopathy: Primary screen using FUS-linked yeast assay; also: nearly all actives have a fitted effect of over 55% in size;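 as to growth rescue (activation): plate controls were DMSO vehicle for no effect and reference control for full effect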
# Settings: S. cerevisiae FUS-expressing, OD600, 24 h; Potency: growth rescue; growth rescue (activation): at 76.6 µM (top of the series)
# Summary of the method: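 Toxicity suppression screen in FUS-yeast. Cells induced with 2% galactose, starting OD 0.005, treated 24hr at 30C with compounds at multiple final concentrations; growth by OD600.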
# Potency is read from the fitted curve at half-maximal effect; tags tell the direction and shape of the fitted curve.
SMILES,Potency,growth rescue (activation)
Cc1ccc(CN2C(=O)c3ccccc3Sc3ccc(C(=O)N4CCOCC4)cc32)cc1,"inconclusive: 50.1 µM [activator, single point]",–
Cc1cccc(NC(=O)c2oc3c(c2C)C(=O)CC(C)(C)C3)n1,–,inconclusive: -32.9% [activator]
COc1ccc(-c2cn3c(C)c(C(=O)Nc4ccncc4)sc3n2)cc1,inactive,–
COc1ccc(NC(=O)c2c(C)nn(-c3ccccc3)c2Cl)cc1,inactive,–
C#CCOCCOCCOCCNc1nc(N2CCN(C(=O)CCCCCCCCCCNC(=O)[C@@H](CCSC)n3cc(CCO)nn3)CC2)nc(N2CCN(C(=O)CCCCCCCCCCNC(=O)[C@H](CCC(=O)O)n3cc(CCCCCN)nn3)CC2)n1,active: 11.2 µM,–
COc1ccc(S[C@]2(C(=O)N3CCOCC3)CC(=O)N(C(=O)CCc3ccccc3)[C@@H]2c2ccc(OC)cc2)cc1,inactive,–
COc1ccc(N2CCN(C(=O)C(=O)c3cn(CC(=O)N4CCCCCC4)c4ccccc34)CC2)cc1,"inconclusive: 28.2 µM [activator, partial curve, poor fit]",–
Cc1ccccc1NC(=O)Cc1nc(COC(=O)c2cc([N+](=O)[O-])ccc2NCCO)cs1,"inconclusive: 50.1 µM [activator, single point]",–
Brc1ccc(-c2csc(NNC3=NCCCCC3)n2)cc1,"inconclusive: 12.6 µM [activator, partial curve, poor fit]",–
O=C1NC[C@H](c2ccccc2)OC(=O)[C@H](Cc2ccc(F)cc2)CC/C=C/C[C@@H]1CC(=O)N(CCO)Cc1ccccc1,"inconclusive: 15.8 µM [activator, partial curve, poor fit]",–
O=C(c1ccc(Br)cc1)N1CCC(c2nc3ccccc3s2)CC1,inactive,–
CCOc1ccc(C(=O)Nc2c(C)nc(Nc3ccccc3)nc2Nc2ccccc2)cc1OCC,"inconclusive: 28.2 µM [activator, single point]",–
COc1cc(/C=N/NC(=O)c2ccc(CN3C(=O)c4cccc5cccc3c45)cc2)cc(OC)c1O,"inconclusive: 28.2 µM [activator, single point]",–
COC(=O)/C(=C/c1c[nH]c2ccccc12)[N+](=O)[O-],"inconclusive: 22.4 µM [activator, partial curve]",–
O=C(CCSc1ccccc1)OCn1nnc2ccccc2c1=O,inactive,–
COc1ccc(NC(=O)C[C@H]2C(=O)N(c3ccc(OC)cc3)C[C@@H]2c2ccc(Br)cc2)cc1,"inconclusive: 50.1 µM [activator, single point]",–
CCc1nc2ccc(C(=O)Nc3cc(-c4ccccc4)ccc3OC)cn2c1N(C)C(=O)c1cccc(OC)c1,"inconclusive: 35.5 µM [activator, single point]",–
CCOC(=O)[C@]12CCC=C1N(Cc1cccc3ccccc13)C(=O)[C@H](CC(=O)NCc1ccc(C)o1)C2,"inconclusive: 15.8 µM [activator, partial curve, poor fit]",–
O=C(N[C@H]1CCC(=O)N([C@H](CSc2ccc(Br)cc2)Cc2ccccc2)CC1)OCc1ccccc1,"inconclusive: 14.1 µM [activator, partial curve, poor fit]",–
CN(C)c1ccc(/C=N/NC(=O)CN(c2cccc(Cl)c2)S(C)(=O)=O)cc1Br,inactive,–

SMILES,Potency,growth rescue (activation)
CC(C)C[C@@H]1Cc2[nH][nH]c(=O)c2[C@H](c2ccc(Cl)cc2)O1,inactive,–
Cc1cc2c(n1-c1ccc(C(=O)NCc3cccc(Br)c3)cc1)CCC(C)C2 (centres undefined),"inconclusive: 44.7 µM [activator, single point]",–
COc1ccc(C2C(C(=O)N3CCN(c4ccccc4F)CC3)c3ccccc3C(=O)N2C)cc1 (centres undefined),inactive,–
Cc1cnc(CNC(=O)c2csc([C@@H]3C[C@H](O)[C@@H](CO)O3)n2)cn1,inactive,–
Cc1cc(C)cc(-n2c(C)cc(/C=N/NC(=O)CN(c3c(C)cccc3C)S(C)(=O)=O)c2C)c1,"inconclusive: 35.5 µM [activator, single point]",–
COc1cc(NC(=O)C(c2ccccc2)c2ccccc2)c(C(=O)O)cc1OC,inactive,–
Nc1c(S(=O)(=O)c2ccccc2)cnc2c(-c3ccc(F)cc3)cnn12,–,inconclusive: 66% [activator]
COc1ccc(N2CCN(C(=O)C3CCC(Cn4c(=S)[nH]c5ccccc5c4=O)CC3)CC2)cc1 (centres undefined),"inconclusive: 20 µM [activator, partial curve]",–
O=C(Cn1c(=O)n(CCCS(=O)(=O)C2CCCCC2)c(=O)c2ccccc21)Nc1ccccc1F,inactive,–
Cc1cc(C(=O)Nc2cccc(C(F)(F)F)c2)c2c(C)nn(-c3cccc(F)c3)c2n1,inactive,–
C[C@@H]1COC(=O)[C@H](NC(=O)OCC2c3ccccc3-c3ccccc32)C/C=C\C[C@@H](CC(=O)N[C@@H](CO)Cc2ccccc2)C(=O)N1,"inconclusive: 25.1 µM [activator, partial curve]",–
CCCOc1ccc(F)cc1-c1cc(C(=O)NCc2cc(OC)cc(OC)c2)[nH]n1,"inconclusive: 28.2 µM [activator, partial curve, poor fit]",–
O=C(NCCSc1ccc(Br)cc1)c1ccc2nc[nH]c2c1,inactive,–
CCOc1ccc(-n2c(SCc3cccc4ccccc34)nnc2-c2ccc(C)cc2)cc1,"inconclusive: 17.8 µM [activator, partial curve, poor fit]",–
CS(=O)(=O)c1cccc(C(=O)Nc2ccc(-c3nc4ccccc4[nH]3)cc2)c1,"inconclusive: 44.7 µM [activator, single point]",–
O=C(c1cccc([N+](=O)[O-])c1)N1c2nc(-c3ccco3)nn2C2(CCCCC2)[C@@H]2CCCC[C@@H]21,"inconclusive: 25.1 µM [activator, single point]",–
CCC(C)(C(=O)NC1CCCC1)N(C)C(=O)c1ccccn1 (centres undefined),inactive,–
COc1ccc(C(C(=O)Nc2ccc3c(c2)OCO3)N(C)C(=O)Cc2c[nH]c3ccccc23)cc1 (centres undefined),"inconclusive: 35.5 µM [activator, single point]",–
C=CC[C@@H](CC(=O)N[C@H](CO)Cc1ccccc1)C(=O)N[C@H](COC(=O)[C@@H](CC=C)CC(=O)OC(C)(C)C)Cc1c[nH]c2ccccc12,"inconclusive: 15.8 µM [activator, partial curve, poor fit]",–
O=c1c2ccccc2oc2ccc(C#CC3(O)CCCCC3)cc12,"inconclusive: 50.1 µM [activator, single point]",–

SMILES,Potency,growth rescue (activation)
Cc1cc(C)n2c(SCC(=O)N(CC(C)C)c3c(N)n(CC(C)C)c(=O)[nH]c3=O)nnc2n1,"inconclusive: 22.4 µM [activator, partial curve, poor fit]",–
CCOc1nc(N=C(N)N)nc2c(C)cccc12,"inconclusive: 0.794 µM [activator, partial curve, poor fit]",–
C#CCN(C[C@H]1[C@H](OC(=O)NCc2ccccc2)[C@H](OC(=O)NCc2ccccc2)C[C@@H](C(=O)OC)[C@H]1C(=O)OC)S(=O)(=O)c1ccc(C)cc1,"inconclusive: 25.1 µM [activator, single point]",–
CCOC(=O)c1c(C)[nH]c(C)c1S(=O)(=O)N(C)CC(=O)N1CCN(c2cccc(C)c2C)CC1,"inconclusive: 17.8 µM [activator, single point]",–
O=C(CSc1nnnn1-c1ccccc1)NC(=O)NCc1ccco1,"inconclusive: 7.94 µM [activator, partial curve]",–
COc1ccccc1CNC(=O)CSc1nc2nc(C)c(Cc3ccccc3C)c(C)n2n1,"inconclusive: 35.5 µM [activator, single point]",–
O=C(NCc1ccc(Cl)cc1)C1CCN(C(=O)c2cnn(-c3ccccc3)c2-n2cccc2)CC1,"inconclusive: 11.2 µM [activator, partial curve, poor fit]",–
Cc1cc(C(=O)CSc2nnc(Nc3ccccc3F)s2)c(C)n1CC1CCCO1 (centres undefined),"inconclusive: 10 µM [activator, partial curve]",–
CCOC(=O)c1c(C=O)c(C)n(Cc2ccccc2Cl)c1C,–,inconclusive: 74.3% [activator]
CCN(CC)S(=O)(=O)c1cccc(C(=O)NC(Cc2c[nH]c3ccccc23)c2nnc3n2CCCCC3)c1 (centres undefined),"inconclusive: 17.8 µM [activator, partial curve, poor fit]",–
CC(=O)c1ccc(NC(=S)N2c3ccccc3CC2C)cc1 (centres undefined),inactive,–
COc1cccc(CN2C(=O)c3ccccc3C2C(=O)NCCc2ccccc2)c1 (centres undefined),inactive,–
CCOC(=O)/C=C1/SCC(=O)N1CCOc1cccc(Br)c1,inactive,–
CN=c1scc(-c2cc(OC)ccc2OC)n1/N=C/c1c(C)[nH]c2ccccc12,"inconclusive: 22.4 µM [activator, partial curve, poor fit]",–
Cc1ccc(N)c([N+](=O)[O-])c1,inactive,–
COc1ccc(NC(=O)Nc2ccc3c(c2)C(=O)N([C@H](C)CO)C[C@H](C)[C@@H](CN(C)S(=O)(=O)c2ccc(OC)cc2)O3)cc1,"inconclusive: 14.1 µM [activator, partial curve]",–
CCOC(=O)COc1ccc(CC)cc1C(=O)c1ccn2nc(-c3ccc(C)cc3)cc2n1,"inconclusive: 50.1 µM [activator, single point]",–
CCCC[C@H](C(=O)N(C)c1ccccc1)[C@@H](O)c1ccc(Cl)cc1,"inconclusive: 22.4 µM [activator, partial curve]",–
C(=C\c1ccccc1)/CN1CCN(C(c2cccc3ccccc23)c2nnnn2-c2ccc3c(c2)OCCO3)CC1 (centres undefined),"inconclusive: 7.08 µM [activator, partial curve, poor fit]",–
